Data as given in PMC4336329 (PLoS ONE, 2015).
Among all 310,000 compounds or so, about 14,000 (4.5%) showed an effect of 50% or more. The effect is printed as a negative number. Some of the results follow.

target: human ether-à-go-go-related gene (hERG) potassium channel (human, UniProt Q12809); assay: primary screen, population patch clamp on CHO cells stably expressing hERG
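Further: peak tail current of the secondary pulse compared with the same well before compound.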

Sequence of human ether-à-go-go-related gene (hERG) potassium channel (Q12809 whole entry, looked up): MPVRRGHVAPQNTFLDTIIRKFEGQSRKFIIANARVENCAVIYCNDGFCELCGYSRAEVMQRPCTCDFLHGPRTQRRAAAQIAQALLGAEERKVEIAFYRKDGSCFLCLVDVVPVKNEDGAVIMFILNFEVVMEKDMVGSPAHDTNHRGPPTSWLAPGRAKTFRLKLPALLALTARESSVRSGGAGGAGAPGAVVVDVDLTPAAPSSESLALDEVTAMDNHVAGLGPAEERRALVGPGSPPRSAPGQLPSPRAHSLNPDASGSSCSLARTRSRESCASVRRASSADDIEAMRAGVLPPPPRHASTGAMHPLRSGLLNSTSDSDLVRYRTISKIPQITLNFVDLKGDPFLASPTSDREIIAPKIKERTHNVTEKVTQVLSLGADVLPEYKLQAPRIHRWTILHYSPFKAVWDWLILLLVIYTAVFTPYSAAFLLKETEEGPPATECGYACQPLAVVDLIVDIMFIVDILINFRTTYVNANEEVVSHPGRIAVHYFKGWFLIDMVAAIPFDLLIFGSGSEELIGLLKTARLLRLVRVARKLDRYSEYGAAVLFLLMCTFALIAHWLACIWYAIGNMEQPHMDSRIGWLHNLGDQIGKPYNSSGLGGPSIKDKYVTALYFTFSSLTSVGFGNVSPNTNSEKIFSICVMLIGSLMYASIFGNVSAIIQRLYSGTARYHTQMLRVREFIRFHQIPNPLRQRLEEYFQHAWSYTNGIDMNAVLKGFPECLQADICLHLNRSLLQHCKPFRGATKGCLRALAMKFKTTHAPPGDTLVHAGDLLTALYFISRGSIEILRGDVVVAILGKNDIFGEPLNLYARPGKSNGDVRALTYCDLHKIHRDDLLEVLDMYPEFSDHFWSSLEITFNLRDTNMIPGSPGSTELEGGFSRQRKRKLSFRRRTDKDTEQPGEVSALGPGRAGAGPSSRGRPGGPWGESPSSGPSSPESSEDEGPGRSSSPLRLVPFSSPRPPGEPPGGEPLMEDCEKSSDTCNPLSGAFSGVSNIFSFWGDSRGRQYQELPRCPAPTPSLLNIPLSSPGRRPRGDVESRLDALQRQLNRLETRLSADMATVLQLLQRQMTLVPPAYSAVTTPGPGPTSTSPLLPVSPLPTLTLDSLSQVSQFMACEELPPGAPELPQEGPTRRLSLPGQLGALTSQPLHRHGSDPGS

Row | Compound | hERG current change (%, negative = inhibition) at 10uM [%]
1 | CCOc1ccc(N=Cc2c(O)n(C(C)(C)C)c(=O)[nH]c2=O)cc1 | 4.87
2 | COc1ccc2nc(-c3ccc(F)cc3)sc2c1 | 5.25
3 | Cc1ccccc1-c1nc(CN2CCC(C(=O)NC3CCCCC3)CC2)c(C)o1 | -67.7
4 | CCOC(=O)C1C(=O)NC23CCCC2C1c1ccccc1O3 (centres unmarked) | 10.4
5 | O=C(Nc1cccnc1)c1cccc(S(=O)(=O)Nc2cccc(Cl)c2)c1 | -5.23
6 | Cc1c2c(nc3nnnn13)CCCC2 | 2.25
7 | O=C(CC1NCCNC1=O)OCc1ccccc1 (centres unmarked) | -19.9
8 | O=C(NC1CCCCC1)C(c1ccccc1)N(Cc1ccc2c(c1)OCO2)C(=O)c1cnsn1 (centres unmarked) | -22.9
9 | CCOc1ccccc1N1CC(C(=O)NNC(=O)c2ccc(F)cc2)CC1=O (centres unmarked) | 7.14
10 | Cc1cc2c(cc1S(=O)(=O)CCC(=O)N(C)Cc1ccccc1)OCC(=O)N2 | -35
11 | N#Cc1c(=O)c2nc(NCc3ccccc3)ncc2n2ccccc12 | -15.7
12 | Cc1ccccc1C(=O)N1CCCC(CCC(=O)N2CCN(c3ccccn3)CC2)C1 (centres unmarked) | 13
13 | COc1ccc(S(=O)(=O)N2CCN(CC(=O)Nc3cccc(F)c3)CC2)cc1 | -54.1
14 | O=C(NC(=S)NCc1ccccc1)C1CCCCC1 | -9.56
15 | COc1ccc2c(=O)c(Oc3ccc(C(=O)O)cc3)c(C(F)(F)F)oc2c1 | -0.624
16 | O=C(C1=C[C@@H](c2csc3ccccc23)C[C@@H](OCc2ccc(CO)cc2)O1)N1CCN(Cc2ccc3c(c2)OCO3)CC1 | 1.69
17 | CCC1=C2CC[C@H]3C(=O)N(C)C(=O)[C@H]3[C@H]2[C@@]2(Cc3ccccc3)C(=NCC(=O)OC)OC(=O)N2C1=O | 2.92
18 | CCN(CC)CCNC(=O)c1ccc(Cl)c(S(=O)(=O)Nc2ccccc2OC)c1 | -24.4
19 | Brc1ccccc1/C=N/N1CCCCC1 | 16.6
20 | COc1ccc(NC2=NCC(Cc3ccc(Br)cc3)S2)cc1 (centres unmarked) | -21.6
21 | COC(=O)C1=C(c2ccc(-c3ccccc3)c(F)c2)C[C@@H]2CC[C@H]1N2C(=O)N1CCC(C)CC1 | 3.53
22 | CC(C)CNC(=O)COC(=O)c1ccc([N+](=O)[O-])cc1Cl | -10.7

Row | Compound | hERG current change (%, negative = inhibition) at 10uM [%]
23 | COc1ccc(C)cc1NC(=O)C1CCN(S(=O)(=O)c2ccc3c(c2)C(C)(C)C(=O)N3C)CC1 | 15.5
24 | Cc1cccc(C(C)C)c1NC(=O)c1cc2ccccc2o1 | 0.137
25 | Oc1c(N=NC(=S)Nc2ccccc2F)c2ccccc2n1Cc1ccc(F)cc1 | 18.7
26 | O=C(Cn1cc(C(F)(F)F)ccc1=O)N1CCc2ccccc2C1 | 3.64
27 | CCCCNC(=O)CCn1c(=O)c2ccccc2n(CC(=O)Nc2ccccc2OCC)c1=O | 11.9
28 | O=C(NCC(=O)N(Cc1ccco1)C(C(=O)NC1CCCCC1)c1cccnc1)c1ccco1 (centres unmarked) | 13
29 | O=S(=O)(NCCSCc1c(Cl)cccc1Cl)c1ccc2c(c1)OCCO2 | -10.5
30 | Cc1ccc(S(=O)(=O)N2CCc3ccccc3C2CN2C(=O)c3ccccc3C2=O)cc1 (centres unmarked) | -4.25
31 | CC1(C)OC(C)(C)/C(=C/Nc2ccc(O)cc2)C1=O | 1.89
32 | Cl.OCCCCNCc1ccc(OCc2ccc(Cl)cc2)cc1 | -38.8
33 | O=C(NCc1ccccc1)c1cccc(S(=O)(=O)N2CCCCC2)c1 | -52.5
34 | CCOc1ccccc1CN1CCN(C2CCC2)CC1CCO (centres unmarked) | 27.4
35 | O=C(CCS(=O)(=O)Cc1ccccc1F)N1CCc2ccccc2C1 | 3.01
36 | O=C1Nc2ccc(S(=O)(=O)NCCCO)c3cccc1c23 | 17.7
37 | CN(C)C(=O)c1ccc(NC(=O)c2cccnc2)cc1 | 9.88
38 | CC(=O)CSc1nc2c(c(=O)[nH]c(=O)n2C)n1CCCc1ccccc1 | -38.3
39 | COc1ccc(C2(C#N)CCC(=O)N2c2ccccc2)cc1 (centres unmarked) | 5.87
40 | COc1ccc(S(=O)(=O)O/N=C2\CCCc3ccccc32)cc1 | -2.62
41 | N#CCC(=O)N/N=C\c1cc(Br)ccc1OC/C=C/c1ccccc1 | 14.8
42 | COc1ccc(-n2nc(C(=O)Nc3ccc4c(c3)OCO4)c3ccccc3c2=O)cc1 | 7.44
43 | CSCCC(NS(=O)(=O)c1ccc(F)cc1)C(=O)NCc1ccc(S(N)(=O)=O)cc1 (centres unmarked) | 9.36
44 | C=C(C)c1cccc(C(C)(C)NC(=O)NC2CC(C)(C)NC(C)(C)C2)c1 | 9.77

Row | Compound | hERG current change (%, negative = inhibition) at 10uM [%]
45 | COC(=O)c1[nH]c2ccc(Cl)cc2c1NC(=O)CCN1CCOCC1 | 2.71
46 | CCN(CC1CCCO1)C(=O)c1cc(COc2ccc(OC)cc2Cl)on1 (centres unmarked) | -5.59
47 | CC1(c2ccc(Cl)cc2Cl)NC(=O)N(CC(=O)N2CCN(C(=O)c3ccco3)CC2)C1=O (centres unmarked) | -29.1
48 | CC(C)CCN(C(=O)c1ccc(Br)cc1)c1c(N)n(Cc2ccccc2)c(=O)[nH]c1=O | -3.91
49 | Cc1cccc(-n2c(O)c(C=Nc3ccccc3)c3ccccc3c2=O)n1 | -22.2
50 | CCN(c1ccc(NC(=O)CCc2nc3sc4c(c3c(=O)[nH]2)CCCC4)cc1)C(C)C | 4.14
51 | Cc1ccc2c(c1)NC(c1cccs1)C1=C(CC(C)(C)CC1=O)N2 (centres unmarked) | 9.63
52 | C/C(=N\NC(=O)c1ccccn1)C12CC3CC(CC(C3)C1)C2 | 14
53 | Cc1ccc(NC(=O)Nc2ccc3c(c2)OCO3)c(Br)c1 | 27.9
54 | O=C(O)CC(C(=O)O)N1C(=O)/C(=C/c2ccc(-c3nc4ccccc4s3)o2)SC1=S (centres unmarked) | -4.46
55 | CC(NC(=O)CN(c1cccc(C(F)(F)F)c1)S(=O)(=O)c1ccc(Cl)c([N+](=O)[O-])c1)c1ccccc1 (centres unmarked) | 21.2
56 | COc1ccccc1-c1cc(-c2cc(Cl)ccc2O)n[nH]1 | 18.8
57 | CCC(C)N1CC(C(=O)O)CC1=O (centres unmarked) | 6.45
58 | NC(=O)COc1ccc(C23CC4CC(CC(C4)C2)C3)cc1 | 7.2
59 | O=C(OCC(=O)N1CCOCC1)c1ccc(N2CCOCC2)c([N+](=O)[O-])c1 | 19.9
60 | CN(CCC#N)c1ccc(/C=C(\C#N)c2ccccn2)cc1 | -4.79
61 | CNC(=O)CCn1nc(-c2ccccc2)c2ccccc2c1=O | 10.4
62 | COc1ccc(NC(=O)/C=C/c2ccccc2[N+](=O)[O-])c(OC)c1 | 4.66
63 | Cc1ccc(N(CC(=O)Nc2cccc(Cl)c2C)S(C)(=O)=O)cc1 | 4.17
64 | CC(C)c1csc(CN2CCC(n3nccc3NC(=O)Cc3ccccc3)CC2)n1 | -0.822
65 | CC(NC(=O)CN(C)S(=O)(=O)c1cnc[nH]1)c1ccccc1 (centres unmarked) | -0.281
66 | O=Cc1cnc(N2CCCCC2)s1 | 28

Row | Compound | hERG current change (%, negative = inhibition) at 10uM [%]
67 | COc1ccc(C(=O)Nc2ccc(S(=O)(=O)NC(C)=O)cc2)cc1 | 7.67
68 | Cc1cccc(NS(=O)(=O)c2ccc3oc(=O)ccc3c2)c1C | 16.7
69 | CC(C)COc1ccc(C(=O)N2C(=O)c3ccc(N)cc3C2=O)cc1 | 4.32
70 | C[C@@H]1NC(=O)N(CCCn2ccnc2)C1=O | 7.61
71 | Cc1cccc(C(=O)O/N=C/c2c(N3CCOCC3)n(C)c3ccccc23)c1 | -25.6
72 | O=C(CSc1nnnn1-c1cccc(Cl)c1)Nc1ccc2c(c1)CCC2 | 7.44
73 | COc1ccc(NC(=O)c2cn(C)c(=O)c3cc(OC)c(OC)cc23)c(OC)c1 | 14.2
74 | CCOC(=O)Cc1csc(NS(=O)(=O)Cc2ccccc2)n1 | 3.54
75 | O=C(CN(Cc1ccco1)C(=O)CCC(=O)Nc1ccccn1)NCc1ccccc1 | -2.38
76 | CCS(=O)(=O)N1Cc2ccccc2CC1C(=O)Nc1nc2ccccc2s1 (centres unmarked) | -5.72
77 | C/C=C\C(=O)Nc1cccc(C2=NOC3(C2)C[C@@H](C(N)=O)N(C(=O)c2ccccc2)C3)c1 (some centres unmarked) | 16.8
78 | CCOCCCNCc1ccc(OCc2ccc(F)cc2)c(OC)c1.Cl | -33.6
79 | Cc1cccc(OCCN2C(=O)c3ccccc3C2=O)c1 | 9.51
80 | CN1CCN(S(=O)(=O)c2cccc(C(=O)Nc3cc(Cl)ccc3N3CCOCC3)c2)CC1 | -42.3
81 | Cc1ccc2c(c1)S/C(=C\c1cccc[n+]1C)N2CCO.[I-] | -0.805
82 | Cc1cc(C)nc(SCC2COc3ccccc3O2)n1 (centres unmarked) | -8.2
83 | CCOC(=O)C1CCN(C(=O)c2cc3c(OC)c(OC)c(OC)cc3[nH]2)CC1 | 15.5
84 | CC(C)COc1cccc(C(=O)Nc2ccc(S(=O)(=O)N3CCOCC3)cc2)c1 | -1.52
85 | CSc1ccc(C(=O)C2CCCN(Cc3cccnc3)C2)cc1 (centres unmarked) | -53
86 | CCc1ccc(C(=O)CSc2nc3cc(S(=O)(=O)N4CCOCC4)ccc3n2CC)cc1 | -4.19
